The values below come from PMC9911399, “Two distinct binding modes provide the RNA-binding protein RbFox with extraordinary sequence specificity”.

Positions count from the first letter of the chain named. The list shows a part of the results.

Sequences and labels used below:
T1: RBFOX1 RRM (Homo sapiens, UniProt Q9NWB1 109-208)
T1 sequence: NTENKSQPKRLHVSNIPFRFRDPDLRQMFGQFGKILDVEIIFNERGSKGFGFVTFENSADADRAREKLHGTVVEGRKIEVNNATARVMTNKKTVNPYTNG

B1: GCUUAUG (DNA:RNA)
RNA: GGGAGACCGGAAUUCAGAUUGUCCGCUUAUGUUAAAUCCCGUCGUAGCCACCA
DNA 1: CAATCTGAATTCCGGTCTCCC
DNA 2: TGGTGGCTACGACGGGATT
B2: UUAUAGA (DNA:RNA)
RNA: B1 RNA with G25U, C26U, U27A, U30G, G31A
DNA 1: CAATCTGAATTCCGGTCTCCC
DNA 2: TGGTGGCTACGACGGGATT
B3: ACUCAAG (DNA:RNA)
RNA: B1 RNA with G25A, U28C, U30A
DNA 1: CAATCTGAATTCCGGTCTCCC
DNA 2: TGGTGGCTACGACGGGATT
B4: CGCGAUC (DNA:RNA)
RNA: B1 RNA with G25C, C26G, U27C, U28G, G31C
DNA 1: CAATCTGAATTCCGGTCTCCC
DNA 2: TGGTGGCTACGACGGGATT
B5: UAACAUA (DNA:RNA)
RNA: B1 RNA with G25U, C26A, U27A, U28C, G31A
DNA 1: CAATCTGAATTCCGGTCTCCC
DNA 2: TGGTGGCTACGACGGGATT
B6: AAGUUGU (DNA:RNA)
RNA: B1 RNA with G25A, C26A, U27G, A29U, U30G, G31U
DNA 1: CAATCTGAATTCCGGTCTCCC
DNA 2: TGGTGGCTACGACGGGATT
B7: ACUGAGU (DNA:RNA)
RNA: B1 RNA with G25A, U28G, U30G, G31U
DNA 1: CAATCTGAATTCCGGTCTCCC
DNA 2: TGGTGGCTACGACGGGATT
B8: AGGAAGA (DNA:RNA)
RNA: B1 RNA with G25A, C26G, U27G, U28A, U30G, G31A
DNA 1: CAATCTGAATTCCGGTCTCCC
DNA 2: TGGTGGCTACGACGGGATT
B9: CUAUACG (DNA:RNA)
RNA: B1 RNA with G25C, C26U, U27A, U30C
DNA 1: CAATCTGAATTCCGGTCTCCC
DNA 2: TGGTGGCTACGACGGGATT
B10: CGAAUUA (DNA:RNA)
RNA: B1 RNA with G25C, C26G, U27A, U28A, A29U, G31A
DNA 1: CAATCTGAATTCCGGTCTCCC
DNA 2: TGGTGGCTACGACGGGATT
B11: GACGCAC (DNA:RNA)
RNA: B1 RNA with C26A, U27C, U28G, A29C, U30A, G31C
DNA 1: CAATCTGAATTCCGGTCTCCC
DNA 2: TGGTGGCTACGACGGGATT
B12: UUCGGUC (DNA:RNA)
RNA: B1 RNA with G25U, C26U, U27C, U28G, A29G, G31C
DNA 1: CAATCTGAATTCCGGTCTCCC
DNA 2: TGGTGGCTACGACGGGATT
B13: GACUUGU (DNA:RNA)
RNA: B1 RNA with C26A, U27C, A29U, U30G, G31U
DNA 1: CAATCTGAATTCCGGTCTCCC
DNA 2: TGGTGGCTACGACGGGATT
B14: ACGUGAA (DNA:RNA)
RNA: B1 RNA with G25A, U27G, A29G, U30A, G31A
DNA 1: CAATCTGAATTCCGGTCTCCC
DNA 2: TGGTGGCTACGACGGGATT
B15: UAAGCUU (DNA:RNA)
RNA: B1 RNA with G25U, C26A, U27A, U28G, A29C, G31U
DNA 1: CAATCTGAATTCCGGTCTCCC
DNA 2: TGGTGGCTACGACGGGATT
B16: AAUACCU (DNA:RNA)
RNA: B1 RNA with G25A, C26A, U28A, A29C, U30C, G31U
DNA 1: CAATCTGAATTCCGGTCTCCC
DNA 2: TGGTGGCTACGACGGGATT
B17: GCAGGAA (DNA:RNA)
RNA: B1 RNA with U27A, U28G, A29G, U30A, G31A
DNA 1: CAATCTGAATTCCGGTCTCCC
DNA 2: TGGTGGCTACGACGGGATT
B18: GUGGAUG (DNA:RNA)
RNA: B1 RNA with C26U, U27G, U28G
DNA 1: CAATCTGAATTCCGGTCTCCC
DNA 2: TGGTGGCTACGACGGGATT
B19: AGUAUAU (DNA:RNA)
RNA: B1 RNA with G25A, C26G, U28A, A29U, U30A, G31U
DNA 1: CAATCTGAATTCCGGTCTCCC
DNA 2: TGGTGGCTACGACGGGATT
B20: GUCAACC (DNA:RNA)
RNA: B1 RNA with C26U, U27C, U28A, U30C, G31C
DNA 1: CAATCTGAATTCCGGTCTCCC
DNA 2: TGGTGGCTACGACGGGATT
B21: AGGCAAU (DNA:RNA)
RNA: B1 RNA with G25A, C26G, U27G, U28C, U30A, G31U
DNA 1: CAATCTGAATTCCGGTCTCCC
DNA 2: TGGTGGCTACGACGGGATT
B22: AUAAACU (DNA:RNA)
RNA: B1 RNA with G25A, C26U, U27A, U28A, U30C, G31U
DNA 1: CAATCTGAATTCCGGTCTCCC
DNA 2: TGGTGGCTACGACGGGATT
B23: GUGCGGU (DNA:RNA)
RNA: B1 RNA with C26U, U27G, U28C, A29G, U30G, G31U
DNA 1: CAATCTGAATTCCGGTCTCCC
DNA 2: TGGTGGCTACGACGGGATT
B24: CGUACUG (DNA:RNA)
RNA: B1 RNA with G25C, C26G, U28A, A29C
DNA 1: CAATCTGAATTCCGGTCTCCC
DNA 2: TGGTGGCTACGACGGGATT
B25: AAGGCCA (DNA:RNA)
RNA: GGGAGACCGGAAUUCAGAUUGUCCAAGGCCAUUAAAUCCCGUCGUAGCCACCA
DNA 1: CAATCTGAATTCCGGTCTCCC
DNA 2: TGGTGGCTACGACGGGATT
B26: AUCCCGC (DNA:RNA)
RNA: B25 RNA with A26U, G27C, G28C, C30G, A31C
DNA 1: CAATCTGAATTCCGGTCTCCC
DNA 2: TGGTGGCTACGACGGGATT
B27: AUUAACG (DNA:RNA)
RNA: B1 RNA with G25A, C26U, U28A, U30C
DNA 1: CAATCTGAATTCCGGTCTCCC
DNA 2: TGGTGGCTACGACGGGATT
B28: AGCUAGA (DNA:RNA)
RNA: B25 RNA with A26G, G27C, G28U, C29A, C30G
DNA 1: CAATCTGAATTCCGGTCTCCC
DNA 2: TGGTGGCTACGACGGGATT
B29: AGUAAUU (DNA:RNA)
RNA: B1 RNA with G25A, C26G, U28A, G31U
DNA 1: CAATCTGAATTCCGGTCTCCC
DNA 2: TGGTGGCTACGACGGGATT
B30: GCGAGAC (DNA:RNA)
RNA: B1 RNA with U27G, U28A, A29G, U30A, G31C
DNA 1: CAATCTGAATTCCGGTCTCCC
DNA 2: TGGTGGCTACGACGGGATT
B31: UCGGGCC (DNA:RNA)
RNA: B25 RNA with A25U, A26C, C29G, A31C
DNA 1: CAATCTGAATTCCGGTCTCCC
DNA 2: TGGTGGCTACGACGGGATT

The assay deals with T1, RBFOX1 RRM. Briefly: EMSA; HiTS-Eq, 1 nM pool, 10 min; buffer printed only for the single-RNA assays: 10 mM Tris pH 7.5, 150 mM NaCl, 3.4 mM EDTA, 0.001% NP-40, 30 C. Particulars: tags: His6 N-terminal (pET28a); label: 5' 32P. In a few lines: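 A pool of RNA with 7 randomized nucleotides, 5′-radiolabelled and with DNA-annealed flanks, was equilibrated at 1 nM for 10 min in 50 µL with purified RbFox RRM, wild type or mutant, across increasing protein concentrations. Free RNA was separated by 8% native PAGE, excised, reverse-transcribed, barcoded by PCR and sequenced. Relative association constants were obtained from read-count changes of each RNA species versus the control reaction and normalised to the cognate motif.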
Background: Mobility shift assays separate free from complexed probe on a gel.
In the case of B1, the binding signal was 0.0101 KA relative to UGCAUGU. As for B2, the figure is 0.00812 KA relative to UGCAUGU. As for B3, the figure is 0.00459 KA relative to UGCAUGU; as for B4, 0.0167 KA relative to UGCAUGU; as for B5, 0.0014 KA relative to UGCAUGU. On to B6, for which the binding signal is 0.0106 KA relative to UGCAUGU.

Consider B7, for which the binding signal was 0.00991 KA relative to UGCAUGU.

As to B8, the binding signal was 0.0155 KA relative to UGCAUGU. With B9, the binding signal is 0.00882 KA relative to UGCAUGU.

As for B10, the binding signal is 0.00497 KA relative to UGCAUGU.

On to B11, for which the binding signal is 0.0147 KA relative to UGCAUGU.

B12: the binding signal is 0.00592 KA relative to UGCAUGU. As for B13, the figure is 0.0175 KA relative to UGCAUGU. As for B14, the figure is 0.00505 KA relative to UGCAUGU. As to B15, the binding signal was 0.0104 KA relative to UGCAUGU. In the case of B16 it was 0.00191 KA relative to UGCAUGU; in that of B17, 0.00999 KA relative to UGCAUGU.

Consider B18, for which the binding signal is 0.0371 KA relative to UGCAUGU. As for B19, the figure is 0.00173 KA relative to UGCAUGU.

Turning to B20, the binding signal was 0.00506 KA relative to UGCAUGU. In the case of B21 it was 0.0078 KA relative to UGCAUGU; in that of B22, 0.000359 KA relative to UGCAUGU. Regarding B23, the binding signal was 0.0184 KA relative to UGCAUGU.

With B24, the binding signal is 0.0127 KA relative to UGCAUGU.

As to B25, the binding signal is 0.00332 KA relative to UGCAUGU. In the case of B26 it was 0.00173 KA relative to UGCAUGU; in that of B27, 0.00134 KA relative to UGCAUGU; in that of B28, 0.0149 KA relative to UGCAUGU. As for B29, the figure is 0.00647 KA relative to UGCAUGU; as for B30, 0.0132 KA relative to UGCAUGU.

For B31, the binding signal is 0.011 KA relative to UGCAUGU.
